According to PubChem BioAssay AID651820 (National Center for Advancing Translational Sciences (NCATS), 2012):
Among all 340,000 compounds or so, about 12,000 (3.5%) were called active. The shares of active, inactive and inconclusive entries below differ from those in the screen. Calls follow the shape of the dose curve; as a rule, active = well fitted inhibition curve with a large enough effect; inconclusive = small, poorly fitted or top-dose-only effect, or another doubt; inactive = no such curve, though single readings can be large or run the other way. No potency is given beside an inconclusive call; the fits are too rough.
% is scaled to controls: 0 for no effect and ±100 for the full control effect; potency is read from the fitted curve at half-maximal effect; tags tell the direction and shape of the fitted curve.

Assay: qHTS Assay for Inhibitors of Hepatitis C Virus (HCV)
Details: Huh7.5.1 HCVcc-Cre (HCVcc is cell-culture hepatitis C virus) infection, luciferase reporter, 44 h; activity change, negative = inhibition: at 41.8 µM (top of the series) unless noted
Outline: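 Seed cells (1,000/well) for 4 h; treat with compound and infect with HCVcc-Cre, moi about 0.5. Incubate 44 h, then detect luciferase activity.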
For `O=C(COc1ccccc1[N+](=O)[O-])Nc1ccccc1N1CCCC1`, the Potency was inconclusive [inhibitor, single point].
In the case of `COc1ccc(C(CC(=O)Nc2cc([N+](=O)[O-])ccc2OC)c2ccccc2)cc1` (stereo unspecified), the Potency is reported as inconclusive [inhibitor, partial curve].
With `Nn1c(SCC(=O)Nc2cccc(Br)c2)nnc1C1CC1` the Potency was inconclusive [inhibitor, single point].
With `CCCCn1c(=N)n(CC(O)COc2ccccc2)c2ccccc21` (stereo unspecified) the Potency was inconclusive [inhibitor, partial curve].
For `COc1ccc(Nc2nc(NCC3CCCO3)nc(N)c2[N+](=O)[O-])cc1` (stereo unspecified), the Potency was inconclusive [inhibitor, full curve, poor fit].
For `Cc1ccccc1OCc1nc(-c2ccc(NC(=O)c3ccco3)cc2)no1`, the Potency was inconclusive [inhibitor, full curve].
With `CCOC(=O)N1CCN(c2ccc(C(=O)c3cccc(F)c3)cc2)CC1` the Potency was inconclusive [inhibitor, single point].
In the case of `COc1cccc2sc3ccc(C#CC4(N)CCCCC4)cc3c(=O)c12`, the Potency is reported as inconclusive [inhibitor, single point].
For `Cc1ccc(-c2nnc(N3CCC(C)CC3)c3ccccc23)cc1`, the Potency was inconclusive [inhibitor, single point].
In the case of `O=C(Cc1ccc(Cl)cc1)c1c[nH]c(C(=O)NCc2cccnc2)c1`, the Potency is reported as inconclusive [inhibitor, single point].
In the case of `CCN1CCN(c2ccc(S(=O)(=O)N3CCCCC3)cc2NC(=O)C(C)Oc2ccc(F)cc2)CC1` (stereo unspecified), the Potency is reported as inconclusive [inhibitor, single point].
For `Cc1cc(C(=O)CN2C(=O)CCC2=O)c(C)n1Cc1ccccc1`, the “activity change, negative = inhibition” value was inactive: 8.11%.
With `CC1=CC(C)(C)N(C(=O)CSc2nnc(-c3ccc(C)cc3)o2)c2ccc(C)cc21` the Potency was inconclusive [inhibitor, single point].
For `CC(=O)c1cccc(NS(=O)(=O)c2ccc(N/C=C\C(=O)c3ccc(C)cc3)cc2)c1`, the Potency was inconclusive [inhibitor, single point].
In the case of `CCCCn1c(N)c(N(CCOC)C(=O)c2sc3cc(F)ccc3c2Cl)c(=O)[nH]c1=O`, the Potency is reported as inconclusive [inhibitor, single point].
In the case of `O=C1c2ccccc2C(=O)c2c([N+](=O)[O-])ccc(O)c21`, the Potency is reported as inconclusive [inhibitor, full curve, poor fit].
For `C=C1C(=O)O[C@@H]2C[C@@H](C)[C@@H]3C=CC(=O)[C@@]3(C)[C@@H](OC(=O)CC(=O)O[C@H]3[C@@H]4C(=C)C(=O)O[C@@H]4C[C@@H](C)[C@@H]4C=CC(=O)[C@]43C)[C@H]12`, the Potency was active: 1.12 µM.
In the case of `Cn1nc(C(C)(C)C)cc1C(=O)Sc1cccc(Br)c1`, the “activity change, negative = inhibition” value is reported as inactive: -1.51%.
For `Cc1ccc(-c2n[nH]c(=S)n2C)cc1`, the “activity change, negative = inhibition” value was inactive: 5.33%.
With `C=C(c1ccc(OC)cc1)c1ccc(OC)cc1` the Potency was inconclusive [inhibitor, single point].
In the case of `CCOC(=O)CSc1c(-c2ccc(Cl)cc2)[nH]c2ccccc12`, the Potency is reported as inconclusive [inhibitor, single point].
In the case of `C=CCn1cccc(C(=O)Nc2ccc(C)cc2)c1=O`, the Potency is reported as inconclusive [inhibitor, single point].
For `C=C(C)CSc1nc(N)c(C#N)c(-c2ccc(C)cc2)c1C#N`, the Potency was inconclusive [inhibitor, partial curve].
With `COC(=O)c1c(NC(=O)CSc2nnc(CNc3ccc(Cl)cc3)o2)sc(C)c1C` the Potency was inconclusive [inhibitor, partial curve].
With `Nc1c(C(=O)NCc2ccc3c(c2)OCO3)c2nc3ccccc3nc2n1CCCN1CCOCC1` the Potency was inconclusive [inhibitor, single point].
With `O=C(c1ccc(S(=O)(=O)NCC2CCCO2)cc1)N1CCc2ccccc21` (stereo unspecified) the Potency was inconclusive [inhibitor, full curve].
With `COCCn1c(C)cc(C2=NNC(=NC3CC3)SC2)c1C` the Potency was inconclusive [inhibitor, partial curve].
With `Cc1cccc(-c2cc3nc(C)c(C)c(NCCCn4ccnc4)n3n2)c1` the Potency was inconclusive [inhibitor, single point].
With `COC(=O)C1=C(C)N(Cc2ccccc2)C(=NCc2ccccc2)N[C@H]1c1ccccc1` the Potency was inconclusive [inhibitor, single point].
In the case of `CCOc1ccc(-n2c(SCC(=O)NCc3ccco3)nc3c([nH]c4ccccc43)c2=O)cc1`, the Potency is reported as inconclusive [inhibitor, full curve].
With `Cc1ccccc1NC(=O)n1ncc2cc(Cl)ccc21` the “activity change, negative = inhibition” value was inactive: 9.47%.
With `O=C(NCc1ccccn1)c1cccc([N+](=O)[O-])c1` the “activity change, negative = inhibition” value was inactive: 8%.
For `CC(Cc1ccccc1)NC(=O)CC(c1ccccc1)c1ccccc1O` (stereo unspecified), the Potency was inconclusive [inhibitor, full curve].
With `N=c1c(C(=O)NCCc2ccccc2)cc2c(=O)n3ccccc3nc2n1CC1CCCO1` (stereo unspecified) the Potency was inconclusive [inhibitor, partial curve].
In the case of `Cn1c(Cc2cccc3ccccc23)nnc1SCC(=O)N1CCN(c2ccccc2)CC1`, the Potency is reported as inconclusive [inhibitor, single point].
With `CCOC(=O)c1c(S(=O)(=O)NCC(=O)N2CCN(c3ccc(F)cc3)CC2)c(C)n(C)c1C` the “activity change, negative = inhibition” value was inactive: -23.7%.
In the case of `COc1ccc(CNC(=O)c2cc3c(=O)n4ccccc4nc3n(CC3CCCO3)c2=N)cc1` (stereo unspecified), the Potency is reported as inconclusive [inhibitor, single point].
In the case of `Cc1cc(C(=O)CN2C(=O)C(=O)N(Cc3ccco3)C2=O)c(C)n1CCc1ccccc1`, the Potency is reported as inconclusive [inhibitor, single point].
For `O=C(C(c1ccccc1)C(O)c1ccccc1)N1CCOCC1` (stereo unspecified), the “activity change, negative = inhibition” value was inactive: 3.38%.
With `Cc1cccc(NC(=O)CNC(=O)c2sc3ccccc3c2Cl)n1` the “activity change, negative = inhibition” value was inactive: -8%.
In the case of `O=C(NCCc1ccc(Cl)cc1)C1CCN(S(=O)(=O)c2ccc(Br)s2)CC1`, the Potency is reported as active: 10 µM.
